# Test results as given in PubChem BioAssay AID1460 (National Center for Advancing Translational Sciences (NCATS), 2008).
# Several values for one entry are separate records, joined by “and”; a condition that tells them apart may be missing. Equal entries are not always repeated. Out of some 270,000 compounds screened, about 5,800 (2.1%) were called active. This list was built around the results that the source calls inconclusive (neither active nor inactive); the mix of calls is not that of the screen. Calls come from the whole dose curve; as a rule, active = well fitted inhibition curve with a large enough effect; inconclusive = small, poorly fitted or top-dose-only effect; inactive = flat fitted curve, though single readings scatter. A potency beside an inconclusive call is a rough fit, not a confirmed value.
# Target: Microtubule-associated protein tau (Homo sapiens) (UniProt P10636)
# Assay: qHTS for Inhibitors of Tau Fibril Formation, Thioflavin T Binding; note: nearly all actives have a fitted effect of over 55% in size
# Details: recombinant tau K18 P301L (four-repeat tau fragment), heparin-induced fibrillization, ThT fluorescence; series mostly up to 57.4 µM
# In short: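 Tau K18 P301L fragment (15 uM unlabeled plus 0.24 uM Alexa 594-labeled) in 100 mM sodium acetate pH 7 with compound, fibrillization induced by 20 uM heparin for 6 hr at 37 C. Thioflavin T (30 uM) added, fluorescence read after 1 hr (ex 450, em 510 nm).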
# % is set by controls: 0 for no effect and ±100 for the full control effect; potency is the fitted concentration of half-maximal effect; tags give direction and shape of the fitted curve.
# UniProt P10636, sequence (P10636 whole entry, looked up): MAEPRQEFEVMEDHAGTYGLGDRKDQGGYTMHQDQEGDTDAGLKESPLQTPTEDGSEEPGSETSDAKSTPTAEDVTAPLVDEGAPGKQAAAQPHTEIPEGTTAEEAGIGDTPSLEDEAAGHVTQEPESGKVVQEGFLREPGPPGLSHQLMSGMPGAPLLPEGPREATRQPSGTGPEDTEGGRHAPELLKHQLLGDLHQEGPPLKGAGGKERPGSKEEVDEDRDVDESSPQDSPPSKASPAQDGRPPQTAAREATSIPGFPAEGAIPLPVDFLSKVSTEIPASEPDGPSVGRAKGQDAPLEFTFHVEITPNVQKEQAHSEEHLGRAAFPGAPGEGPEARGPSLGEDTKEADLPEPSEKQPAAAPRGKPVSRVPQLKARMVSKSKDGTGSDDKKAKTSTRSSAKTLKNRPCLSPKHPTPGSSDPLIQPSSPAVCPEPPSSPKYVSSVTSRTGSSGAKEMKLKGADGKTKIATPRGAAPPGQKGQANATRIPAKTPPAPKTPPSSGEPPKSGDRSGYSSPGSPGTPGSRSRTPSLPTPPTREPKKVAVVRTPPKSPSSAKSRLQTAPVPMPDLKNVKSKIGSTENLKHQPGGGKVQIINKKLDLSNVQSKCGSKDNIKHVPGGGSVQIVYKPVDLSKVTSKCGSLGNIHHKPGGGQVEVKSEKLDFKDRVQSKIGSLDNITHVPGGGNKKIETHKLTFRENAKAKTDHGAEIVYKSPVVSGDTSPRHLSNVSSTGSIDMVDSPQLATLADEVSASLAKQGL
SMILES,Potency,"activity, negative = inhibition"
COC(=O)[C@@H]1C[C@@]2(O)[C@@H](O)[C@@H](O)[C@@H](O)C[C@H]2N1Cc1ccc(-c2ccccc2)cc1,inactive,
O=C1NCCCc2c1oc1ccc(O)cc21,inactive,
COc1ccc2nc(SCC(=O)Nc3ccc4c(c3)OCCO4)[nH]c2c1,"inconclusive: 12.6 µM [inhibitor, partial curve]",
O=C(CCCN1C(=O)c2cccc3cccc(c23)C1=O)N1CCN(c2ccc(F)cc2)CC1,"inconclusive: 0.631 µM [inhibitor, partial curve]",
COc1ccc(/C=N/Nc2nc(-c3ccc(C)cc3)c(NC(C)=O)s2)cc1,"inconclusive: 17.8 µM [inhibitor, partial curve]",
CC(C)c1nc2sc3c(=S)nc[nH]c3c2c2c1CCC2,"inconclusive: 10 µM [inhibitor, partial curve]",
CN1N=C2c3ccccc3CCCC2C1c1ccc(F)cc1 (stereo not given),"inconclusive: 35.5 µM [inhibitor, single point]",
CCN=C1NN=C(c2cc(C)n(Cc3ccco3)c2C)CS1,"inconclusive: 14.1 µM [inhibitor, partial curve]",
COc1ccc(OC)c(NC(=O)c2c(NCc3sccc3C)sc3c2CCCCC3)c1,"inconclusive: 25.1 µM [inhibitor, partial curve]",
COc1ccc2c(c1)-c1nc(NC(=O)c3ccc(OC)c(Br)c3)sc1CC2,"inconclusive: 12.6 µM [inhibitor, partial curve]",
CCOC(=O)Nc1ccc2c(c1)N(C(=O)OCCN(C)C)c1ccccc1CC2,"inconclusive: 22.4 µM [inhibitor, single point] and inconclusive: 31.6 µM [inhibitor, single point]",
COc1cc(/C=C/c2ccc3c(Br)cc(Br)c(O)c3n2)ccc1O,active: 3.55 µM,
Cc1ccc(NC(=S)Nc2cc(-c3ccccc3)[nH]n2)cc1Cl,inactive,
CCOC(=O)C1Cc2cc3c(cc2C1=O)CC(C(=O)OCC)C3=O (stereo not given),"inconclusive: 12.6 µM [inhibitor, partial curve]",
CCC(C(=O)OCc1cc(=O)n2nc(C)sc2n1)c1ccccc1 (stereo not given),inactive,
CCC(C)C(=O)N1CCc2cc(-c3csc(N)n3)ccc21 (stereo not given),"inconclusive: 15.8 µM [inhibitor, partial curve]",
Cc1cccc(-c2noc(CN(C3CCCCC3)S(=O)(=O)c3ccc(F)cc3)n2)c1,"inconclusive: 11.2 µM [inhibitor, partial curve]",
CCCCCn1nc(-c2ccccc2)c2nc3ccccc3nc21,inactive,
CCOC(=O)C1=C(O)/C(=C\c2cc(C)n(-c3ccccc3F)c2C)N=C1C,"inconclusive: 15.8 µM [inhibitor, partial curve]",
Cc1ccc2cc3c(N)c(C(=O)N4CC(=O)Nc5ccccc54)sc3nc2c1,"inconclusive: 8.91 µM [inhibitor, partial curve]",
O=c1cc(N2CCc3ccccc32)[nH]c(=O)n1-c1ccc(Br)cc1,active: 28.2 µM,
CCOc1cc(/C=N/NC(=O)CNc2ccc(C)cc2)ccc1OC(=O)c1ccccc1,"inconclusive: 17.8 µM [inhibitor, partial curve]",

SMILES,Potency,"activity, negative = inhibition"
CC(C)=NNc1nc2c(c(=O)n(C)c(=O)n2C)n1C,"inconclusive: 15.8 µM [inhibitor, partial curve, poor fit]",
CC1(OC(=O)CCc2ccccc2)C(=O)C=C2C=C(c3ccc(C#N)cc3)N(CCN3CCOCC3)C=C2C1=O (stereo not given),"inconclusive: 14.1 µM [inhibitor, partial curve]",inactive: 2.87% [at 11.5 µM]
CCc1nnc(NC(=O)[C@@H](NC(=O)c2ccc(C(C)(C)C)cc2)C(C)C)s1,"inconclusive: 28.2 µM [inhibitor, single point]",
COc1ccccc1NC(=O)COC(=O)c1ccc([N+](=O)[O-])s1,"inconclusive: 12.6 µM [inhibitor, partial curve]",
CCn1cc(C(=O)OCc2cccc(Br)c2)c(=O)c2ccc(C)nc21,"inconclusive: 35.5 µM [inhibitor, single point]",
CCCCC1C2=C(CC(C)(C)CC2=O)OC2=C1C(=O)CC(C)(C)C2,inactive,
O=C(C[n+]1cnn(CC(=O)c2ccc(Cl)cc2Cl)c1)c1ccc([N+](=O)[O-])cc1,"inconclusive: 12.6 µM [inhibitor, partial curve]",
O=[N+]([O-])c1ccc(N2CCOCC2)cc1NC(c1ccccc1)c1ccccc1,"inconclusive: 31.6 µM [inhibitor, single point]",
CCCCCCCCCCCCC/C=C/[C@@H](O)[C@@H](N)CO,"inconclusive: 39.8 µM [inhibitor, single point]",
CC(C)(C)C(=O)c1sc2nc(-c3cccs3)cc(C(F)(F)F)c2c1N,"inconclusive: 25.1 µM [inhibitor, single point]",
COc1ccc2c(c1)c(C(O)CN1CCN(Cc3ccc4c(c3)OCO4)CC1)c(C)n2C (stereo not given),"inconclusive: 12.6 µM [inhibitor, partial curve]",
NS(=O)(=O)c1ccc(-c2ccc(/C=N/NC(=O)c3ccc([N+](=O)[O-])cc3)o2)cc1,"inconclusive: 0.708 µM [inhibitor, full curve]",
CCOC(=O)C1=C(C)N=c2s/c(=C\c3ccncc3)c(=O)n2C1c1ccc2c(c1)OCO2 (stereo not given),active: 25.1 µM,
O=[N+]([O-])c1cc(Cl)c2cccnc2c1O,active: 10 µM,
Cc1cc(C)c(C)c(OCC(=O)Nc2ccc(S(=O)(=O)Nc3nc(C)cc(C)n3)cc2)c1,"inconclusive: 0.282 µM [inhibitor, partial curve]",
COc1ccccc1NC(=O)CCn1nc(-c2ccccc2OC)c2c(C)cc(C)nc21,inactive,
CC1=C(C(=O)OCc2ccccc2)C(c2ccc(-c3ccccc3)cc2)NC(=O)N1CCCCCC(=O)O (stereo not given),"inconclusive: 25.1 µM [inhibitor, partial curve]",
O=C(O)/C=C/C(=O)Nc1ccccc1C(=O)OCC(=O)c1ccc2c(c1)OCCO2,"inconclusive: 15.8 µM [inhibitor, partial curve]",
CCOC(=O)N1CCc2c(sc(NCc3cccc(F)c3)c2C(=O)Nc2ccc(OC)cc2OC)C1,"inconclusive: 11.2 µM [inhibitor, partial curve]",
CCC(=O)Nc1ccccc1-c1nc2ccccc2n(CC(=O)c2ccc(Cl)cc2)c1=O,inactive,
Cc1cccc(-c2nc3ccccc3n2Cc2ccccc2)c1,inactive,
CC(C)OC(=O)C(C(=O)C(F)(F)F)c1cc(NS(=O)(=O)c2ccc3c4c(cccc24)C(=O)N3)ccc1O (stereo not given),inactive,

SMILES,Potency,"activity, negative = inhibition"
COc1cccc(OCc2nc3c4cnn(-c5ccccc5)c4ncn3n2)c1,"inconclusive: 0.708 µM [inhibitor, full curve]",
O=C(CSc1ncnc2scc(-c3ccc(Cl)cc3)c12)NCc1ccc2c(c1)OCO2,inactive,
CCN(CC)c1ccc2cc(C=O)c(=O)oc2c1,"inconclusive: 14.1 µM [activator, partial curve]",
Cc1cc(/C=N/NC(=O)c2ccccn2)c(C)n1-c1cccc([N+](=O)[O-])c1,inactive,
Cc1cc(C)nc(N=Nc2c(O)n(Cc3ccc(Cl)cc3)c3ccccc23)n1,"inconclusive: 12.6 µM [inhibitor, partial curve]",
Cc1cc([N+](=O)[O-])ccc1NCc1ccco1,"inconclusive: 28.2 µM [inhibitor, partial curve]",
CCc1ccc(OCc2cc(=O)n3c4c(sc3n2)CCCC4)cc1,"inconclusive: 0.178 µM [inhibitor, full curve]",
COC(=O)N/N=C/c1ccc(-c2cc(Cl)cc(Cl)c2)o1,"inconclusive: 0.224 µM [inhibitor, full curve, poor fit]",
Cc1cc(N)c2ccccc2[n+]1CCCCCCCCCC[n+]1c(C)cc(N)c2ccccc21,"inconclusive: 3.16 µM [inhibitor, partial curve] and inconclusive: 7.94 µM [inhibitor, partial curve]",
O=C(CSc1nnc(COc2ccccc2)n1Cc1ccco1)NCc1ccco1,"inconclusive: 28.2 µM [inhibitor, single point]",
CCCC(=O)Nc1cc(C(=O)NCc2ccccc2)ccc1S(=O)(=O)c1ccc(Cl)cc1,"inconclusive: 44.7 µM [inhibitor, single point]",
Cn1c(=O)c(=O)n(C)c2cc(S(=O)(=O)N3CCN(c4ccc(F)cc4)CC3)ccc21,"inconclusive: 10 µM [inhibitor, partial curve, poor fit]",
COc1ccc(C)cc1-n1nnnc1SCC(=O)NNC(=O)c1ccc([N+](=O)[O-])cc1,"inconclusive: 17.8 µM [inhibitor, partial curve]",
CN1CCN(CCCNC(=O)c2cc3c(=O)n(C)c4ccccc4c3s2)CC1,"inconclusive: 31.6 µM [inhibitor, partial curve]",
c1ccc(Oc2cccc(CN3CCCCC3)c2)cc1,inactive,
C=CCOC(=O)C(=O)/C=C/c1ccc2c(c1)Cc1ccccc1-2,"inconclusive: 0.891 µM [inhibitor, single point]",
CCn1c2ccccc2c2cc(NC(=O)Cc3ccc(S(=O)(=O)N4CCOCC4)s3)ccc21,"inconclusive: 11.2 µM [inhibitor, partial curve]",
CCN(CC)C(=O)CC(c1ccc(F)cc1)c1ccco1 (stereo not given),"inconclusive: 14.1 µM [inhibitor, partial curve, poor fit]",
O=C(CCc1ccccc1)Nc1cc2c(cc1Cl)OCCO2,inactive,
COc1ccc(OC)c(Nc2cc(-c3ccccc3)nc(N)n2)c1,"inconclusive: 25.1 µM [inhibitor, partial curve]",
